From PubChem BioAssay AID1345082 (National Center for Advancing Translational Sciences (NCATS), 2018)
Where “and” joins values, the source holds several entries; their conditions need not be identical. Equal values may be shown once. Hit rate of the full screen: of about 94,000 compounds, about 4,000 (4.3%) were called active. Inconclusive results, whose numbers are uncertain, are shown with a selection of clear calls. The call rests on the fitted dose curve; in most records, active means well fitted inhibition curve with a large enough effect; inconclusive means small, poorly fitted or top-dose-only effect; inactive means no such curve, though single readings can be large or run the other way. A potency beside an inconclusive call is a rough fit, not a confirmed value.

Assay: Cytotoxic Profiling in NIH 3T3 Cell Line of Diverse Libraries Using Quantitative High-Throughput Screening; further: nearly all actives have a fitted effect of over 55% in size
Conditions: NIH 3T3 viability, CellTiter-Glo ATP luminescence, 48-72 h; activity change, negative = cytotoxicity: at 96.7 µM (top of the series) unless noted; series mostly up to 96.7 µM
In short: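 Cytotoxicity was measured by CellTiter-Glo ATP luminescence after 48 or 72 h compound exposure at 37 °C. Mouse NIH 3T3 fibroblasts were seeded at 400 cells/well and dosed by 23 nL pin transfer.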
On the % scale 0 is the no-effect control and ±100 the full control effect; potency means the concentration at half of the fitted maximal effect; tags describe the fitted curve by direction and shape.

| Structure (SMILES) | activity change, negative = cytotoxicity | Potency | outcome |
| --- | --- | --- | --- |
| COc1ccc(C(=O)N2CCC(N3C(=O)C(OCC4CC4)C34CCOCC4)CC2)cn1 (configuration not stated) | inactive: 2.25% | – | – |
| COc1ccc(S(=O)(=O)N2CCc3c(C(=O)NCCc4ccccn4)cccc32)cc1 | – | inconclusive: 44.7 µM [inhibitor, partial curve, poor fit] | – |
| Cn1ncc2c(C(=O)Nc3cccc(F)c3)cc(-c3cccc(F)c3)nc21 | – | inconclusive: 56.2 µM [inhibitor, partial curve, poor fit] | – |
| COc1cccc([S+](=O)([O-])N2CCc3nc(C4CC4)nc(-c4ccc(Cl)cc4)c3CC2)c1 | inactive: -20.2% | – | – |
| COc1ccc(-c2nc3cc(C)ccc3cc2CN2CCC(N(C)C)C2)cc1 (configuration not stated) | – | inconclusive: 89.1 µM [inhibitor, single point] | – |
| O=[S+]([O-])(c1cccc(C(F)(F)F)c1)N1CC(Oc2ccc(F)cc2F)C1 | inactive: -19% | – | – |
| CC(=O)NC1CCCN(Cc2ccc(-c3cc(C)cc(C)c3)cc2)C1 (configuration not stated) | – | inconclusive: 56.2 µM [inhibitor, partial curve, poor fit] | – |
| Cc1noc2c(NC3CCCCC3)cc(-c3ccsc3)nc12 | – | inconclusive: 56.2 µM [inhibitor, partial curve, poor fit] | – |
| CCCNC(=O)C(NC(=O)CC(C)C)C1CCN(C(=O)c2ccc3c(c2)OCO3)CC1 (configuration not stated) | inactive: -16.9% | – | – |
| Cc1cc(C)c(S(=O)(=O)N2CCn3c(nn(CC4CC4)c3=O)C2)c(C)c1 | – | inconclusive: 44.7 µM [inhibitor, partial curve, poor fit] | – |
| COc1ccccc1C(=O)N1CCC(Cc2nc(-c3ccc(F)cc3)no2)CC1 | – | inconclusive: 31.6 µM [inhibitor, full curve, poor fit] | – |
| O=C(NCCC1=CCCCC1)C1CC(=O)N(c2n[nH]c3ccccc23)C1 (configuration not stated) | – | inconclusive: 44.7 µM [inhibitor, partial curve, poor fit] | – |
| CCn1cc([S+](=O)([O-])N2CCN(C(=O)N3CC4CC(C3)[C@H]3CCCC(=O)N3C4)CC2)cn1 (some centres not stated) | – | – | inactive |
| CN1CCC(NC[C@H]2O[C@H](Cc3cc(-c4ccc(F)cc4)on3)CC[C@@H]2O)CC1 | – | active: 89.1 µM | – |
| O=C(c1ccoc1)N1CCCC(c2nc(CCOCC3CCCC3)no2)C1 (configuration not stated) | inactive: -12.7% | – | – |
| CCn1ncc(CN2CCCC23CCN(c2ccc(C(F)(F)F)cn2)CC3)c1C | – | inconclusive: 44.7 µM [inhibitor, partial curve, poor fit] | – |
| NC1CC(c2nnc(COc3ccc4c(c3)CCNCC4)n2C2CC2)C1 (configuration not stated) | – | inactive and inconclusive: 63.1 µM [inhibitor, partial curve, poor fit] | – |
| O=C(c1cc(-c2cccnc2)nc2ccccc12)N1CCCC2(CCOC2)C1 (configuration not stated) | inactive: -28% | – | – |
| Cc1cccc(C)c1-c1cc(C(=O)NCCCc2ccccc2)c2cnn(C)c2n1 | – | inconclusive: 39.8 µM [inhibitor, partial curve] | – |
| Cc1cc(C)n(CC(=O)N2CC(N(C)Cc3cccnc3)C2)n1 | – | – | inactive |
| O=C([C@H]1C[C@@H](O)[C@H](O)[C@@H]2N=C(Nc3ccc(Cl)cc3)S[C@@H]21)N1CCOCC1 | inactive: -7.64% [at 174 µM] | – | – |

| Structure (SMILES) | activity change, negative = cytotoxicity | Potency | outcome |
| --- | --- | --- | --- |
| COc1cccc(CN2Cc3nc(N(C)c4ccccc4)ccc3OCC2=O)c1 | – | inconclusive: 89.1 µM [inhibitor, partial curve] | – |
| O=C(N[C@@H]1CN(C(=O)Nc2ccc(OC(F)(F)F)cc2)CCC[C@H]1O)c1ccc(OCCN2CCOCC2)cc1 | – | inconclusive: 50.1 µM [inhibitor, partial curve, poor fit] | – |
| CCCNC(=O)N[C@@H]1C[C@H](COc2ccc(S(C)(=O)=O)cc2)[C@@H](O)[C@H]1O | inactive: -11.6% [at 138 µM] | – | – |
| O=C(O)CCC(=O)N1CCC2(CC1)Cc1ccccc1N(C(=O)c1ccc(Cl)cc1)C2 | – | active: 31.6 µM | – |
| O=C(c1ccc(Cl)cc1)N1CCC(N2Cc3ccccc3C2=O)CC1 | – | inconclusive: 50.1 µM [inhibitor, partial curve, poor fit] | – |
| COc1cccc(C(=O)N2CCC3(CC2)CC(c2cccc(C(F)(F)F)c2)=NO3)c1 | – | inconclusive: 39.8 µM [inhibitor, partial curve] | – |
| COc1ccc(OCc2nc(C)c(CCO)c(=O)n2CC(=O)Nc2cc(OC)cc(OC)c2)cc1 | inactive: -16.6% | – | – |
| O=c1cc(N2CCOCC2)oc2c(NCC3CCOCC3)nccc12 | – | active: 28.2 µM | – |
| CCOC(=O)C1CCCN(C(=O)c2nc3sccn3c2-c2cccnc2)C1 (configuration not stated) | inactive: -3.26% | – | – |
| O=C1CCN(CC(O)Cc2ccccc2)c2cc3c(cc2CN1Cc1ccccc1)OCO3 (configuration not stated) | – | inconclusive: 39.8 µM [inhibitor, partial curve, poor fit] | – |
| COc1cccc(CC(=O)N2CCc3nn(Cc4ccccc4)c(=O)n3CC2)c1 | inactive: -25.2% | – | – |
| Cc1ccc(CNC(=O)c2ccc3c(c2)CN(Cc2cccc(F)c2)CCO3)cc1 | – | inconclusive: 44.7 µM [inhibitor, partial curve, poor fit] | – |
| COc1ccccc1-c1ccc(CN2CCC(N[S+](=O)([O-])c3cccc(C(F)(F)F)c3)C2)cc1 (configuration not stated) | – | active: 12.6 µM | – |
| Cc1cccc(CN2C[C@@H]3C(=O)N(Cc4ccc5c(c4)OCO5)C(=O)[C@@H]3C2)c1 | – | inconclusive: 50.1 µM [inhibitor, single point] | – |
| Cc1ccc(S(=O)(=O)N2CCC(CCC(=O)O)CC2)cc1 | – | inconclusive: 44.7 µM [inhibitor, partial curve, poor fit] | – |
| COCCC(=O)N1CCCN(CCc2ccccc2)c2ccccc21 | – | inconclusive: 31.6 µM [inhibitor, partial curve, poor fit] | – |
| COCCn1c(C)cnc1CC1CCCN(Cc2ccc(F)c(F)c2)C1 (configuration not stated) | inactive: -14.6% | – | – |
| CN(C)C(=O)c1ccc(OC2CCN(C(=O)c3ccc(Cl)cc3)CC2)nc1 | – | active: 39.8 µM | – |
| CN1C(=O)c2cccn2CC1C(=O)NCc1cccc(F)c1 (configuration not stated) | – | inconclusive: 31.6 µM [inhibitor, partial curve, poor fit] | – |
| CC1CCN(C(=O)c2cc3n(n2)CC(c2ccc(Cl)cc2)OC3)CC1 (configuration not stated) | – | active: 39.8 µM | – |
| CCn1nccc1C(=O)N1CCCN(S(=O)(=O)c2ccccc2)CCC(=O)NCC1 | inactive: -3.43% | – | – |
